According to PubChem BioAssay (NCATS):
Several values for one entry are separate records, joined by “and”; a condition that tells them apart may be missing. Identical values can stand only once. Inconclusive means that the source gave no clear call. Such entries were picked first, then a sample of the others. Potencies beside an inconclusive call are fits to weak or partial responses and may not hold up. Activity calls are given as the source filed them. Calls come from the whole dose curve; as a rule, active = well fitted cell-killing curve with a large enough effect; inconclusive = small, poorly fitted or top-dose-only effect, or effect the other way; inactive = flat fitted curve, though single readings scatter.
Potency is the fitted concentration of half-maximal effect; tags give direction and shape of the fitted curve.

Each compound was assayed on Tov-21-G (assay: Primary qHTS to identify gynecologic anti-cancer compounds using libraries of approved drugs and bioactive compounds (AID 1345084; note: nearly all actives have a fitted effect of over 55% in size)). Settings: Gynecologic cancer cell panel viability, ATPlite luminescence, 48 h; series mostly up to 57.5 µM.
Outline: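 Cells, 1,000 per well, plated 16 h, then exposed 48 h at 37 C to compounds. Viability by ATPlite luminescence after 15 min at room temperature.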
`C[C@@]1(C(=O)Nc2ccc(F)nc2)CCCN1c1nc(Nc2cc(C3CC3)[nH]n2)c2cccn2n1` was tested, and the Potency was active: 12.6 µM.
For `CN(C)Cc1ccc(-c2nc3cccc4c3n2CCNC4=O)cc1`, the Potency was inconclusive: 22.4 µM [cytotoxic, single point].
For `O=C(N[C@H](CO)[C@H](O)c1ccc([N+](=O)[O-])cc1)C(Cl)Cl`, the Potency was inconclusive: 14.1 µM [rising, partial curve, poor fit].
`Cc1cc2c(cc1C1(c3ccc(C(=O)O)cn3)CC1)C(C)(C)CCC2(C)C` was tested, and the Potency was inconclusive: 39.8 µM [cytotoxic, partial curve, poor fit].
In the case of `Cc1nc(Nc2ncc(C(=O)Nc3c(C)cccc3Cl)s2)cc(N2CCN(CCO)CC2)n1`, the Potency is reported as inconclusive: 3.98 µM [cytotoxic, partial curve, poor fit] and inconclusive: 501 nM [cytotoxic, full curve, poor fit].
With `COc1cc(N2CCC(N3CCN(C)CC3)CC2)ccc1Nc1ncc(Cl)c(Nc2ccccc2S(=O)(=O)C(C)C)n1` the Potency was active: 7.08 µM.
With `CCc1nc(N)nc(N)c1-c1ccc(Cl)cc1` the Potency was active: 3.16 µM.
With `CN1CCN(c2cccc(Nc3nc4c(-c5ccc(S(C)(=O)=O)cc5)cccn4n3)c2)CC1` the Potency was inconclusive: 4.47 µM [cytotoxic, full curve].
For `Cc1coc2c1C(=O)C(=O)c1c-2ccc2c1CCCC2(C)C`, the Potency was inconclusive: 28.2 µM [cytotoxic, single point].
`CN(C[C@@H]1COCCO1)S(=O)(=O)Nc1ccc2ccc3ncc(-c4cnn(C)c4)cc3c(=O)c2c1` was tested, and the Potency was active: 20 µM.
`CC1(C)Cc2c(-c3ccccc3)c(-c3ccc(Cl)cc3)c(CC(=O)O)n2C1` was tested, and the Potency was inconclusive: 22.4 µM [cytotoxic, single point].
In the case of `COc1cc(N2CCC(N3CCN(C)CC3)CC2)ccc1Nc1ncnc(Nc2ccccc2S(=O)(=O)C(C)C)n1`, the Potency is reported as active: 12.6 µM.
In the case of `Cc1ccc(-n2[nH]c(C)c(N=Nc3cccc(-c4cccc(C(=O)O)c4)c3O)c2=O)cc1C`, the Potency is reported as inconclusive: 1.12 µM [cytotoxic, full curve, poor fit].
For `Cc1ccn(-c2ccc(-c3ncco3)cc2)c(=O)c1-c1ccc2nc(N)ncc2c1`, the Potency was active: 11.2 µM.
For `CC1CCC(C(=O)N(c2cc(C#CC(C)(C)C)sc2C(=O)O)C2CCC(O)CC2)CC1` (stereo not given), the Potency was “inactive”.
